The record followed here is PubChem BioAssay AID1508623 (National Center for Advancing Translational Sciences (NCATS), 2021).

About 450 (0.94%) of roughly 48,000 compounds were called active. Not shown: some 19% with an inconclusive outcome. The call rests on the fitted dose curve; in most records, active means well fitted inhibition curve with a large enough effect; inconclusive means small, poorly fitted or top-dose-only effect; inactive means no such curve, though single readings can be large or run the other way. This is one part of the list.

This assay is described as follows: Primary qHTS for Identification of Small Molecule Inhibitors of Huntingtin Promoter Activity. Further: nearly all actives have a fitted effect of over 50% in size. The conditions noted are these: HEK293 HTT promoter firefly luciferase reporter (activity 0% = vehicle and -100% = no light), 24 h; series mostly up to 57.5 µM; activity change, negative = inhibition: at the top concentration. The gist of the method: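 HEK293 Fluc reporter, 2,500 cells/well, 24 h pre-culture; cpds up to 57.5 uM final, 24 h 37 degrees C; Dual-Glo, 10 min RT; normalized vehicle = 0%, zero RLU = -100%.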
On the technique in general: qHTS replaces the single test concentration by a dilution series.
Regarding `Cc1ccc(NC(=O)CSCc2cc(=O)c3ccccc3[nH]2)c(C)c1`, the “activity change, negative = inhibition” value is inactive: -26.9%.
As for `COc1ccc(Cn2c(CO)cnc2SCc2ccccc2)cc1`, the figure is inactive: -2.71%; as for `O=C(COCc1cc(-c2ccc(F)cc2)on1)Nc1cccc(C(F)(F)F)c1`, inactive: -1.64%; as for `COc1ccc(-c2cn3c(n2)sc2cc(C(=O)NCCCN4CCN(C)CC4)ccc23)cc1`, inactive: -23.8%.
Under `Cc1ccc(-n2c(=O)c3c(C)c(C(=O)N(C)C)sc3n(Cc3ccccc3C)c2=O)cc1C` stands inactive: 10.3%; under `Cc1cccc(Nc2nc(-c3ccccc3)nc3ccccc23)c1`, inactive: -22.7%.
Under `CCCCN(CC)C(=O)CSc1nc2c(sc3ccccc32)c(=O)n1CCc1ccccc1` stands inactive: -6.93%; under `CCc1ccccc1NC(=O)Cn1c(=O)n(-c2ccc(C)cc2)c(=O)c2cc(OC)c(OC)cc21`, inactive: -1.01%.
For `O=C(O)/C=C/c1ccc(Cn2ccnc2)cc1`, the “activity change, negative = inhibition” value is inactive: -8.34%.
With `O=C(NO)c1ccccc1`, the “activity change, negative = inhibition” value is inactive: -17.6% [at 116 µM].
Regarding `CC(=O)N1CCc2c(sc3c2c(=O)n(-c2ccccc2C)c(=O)n3CC(=O)Nc2ccccc2)C1`, the “activity change, negative = inhibition” value was inactive: 4.59%.
As for `Cn1c(=O)sc2cc(NS(=O)(=O)c3ccc(C(C)(C)C)cc3)ccc21`, the “activity change, negative = inhibition” value is inactive: 12.2%.
As for `Cc1c(C(=O)Nc2c(F)cccc2F)sc2ncn(Cc3ccccc3F)c(=O)c12`, the “activity change, negative = inhibition” value is inactive: -28.3%.
As to `COc1ccc(C(=O)NCc2cn3ccc(C)cc3n2)cc1`, the “activity change, negative = inhibition” value is inactive: -16.9%.
Consider `CC(C)CC(=O)NC1CC(=O)N(c2ccc3c(c2)OCCO3)C1` (stereo unspecified), for which the “activity change, negative = inhibition” value is inactive: -12%.
For the compound `COc1cc2nccc(Oc3ccc(NC(=O)C4(C(=O)Nc5ccc(F)cc5)CC4)cc3)c2cc1OC`, the “activity change, negative = inhibition” value is inactive: -20.6%.
As to `CN(Cc1ccccc1)c1nc2c(S(=O)(=O)c3cccc(Cl)c3)nnn2c2ccsc12`, the “activity change, negative = inhibition” value was inactive: -11.1%.
As for `CCCCNC(=O)CSc1nc2cc3c(cc2c(=O)n1CCCC(=O)NCc1ccc(OC)cc1)OCO3`, the “activity change, negative = inhibition” value is inactive: -16.4%.
As for `COC(=O)c1ccccc1NC(=O)NCc1ccc2c(c1)CCN2C(=O)c1ccccc1`, the figure is inactive: -10.1%; as for `Cc1ccc2c(c1)N(C(=O)N1CCC(C(=O)Nc3cccc(F)c3)CC1)CCO2`, inactive: -27.3%; as for `COc1cc(Nc2nc3c(S(=O)(=O)c4ccccc4)nnn3c3ccc(Cl)cc23)cc(OC)c1`, inactive: 2.21%.
Under `O=c1c2oc3ccccc3c2n(Cc2ccccc2Cl)c(=O)n1Cc1ccc2c(c1)OCO2` stands inactive: -11.3%; under `Cc1ccc2c(c1)N(C(=O)CCC(=O)NCc1ccccc1F)CC(C)O2` (stereo unspecified), inactive: -21.1%; under `CCOC(=O)c1ccc2c(c1)N(Cc1cc(C)ccc1C)C(=O)c1ccccc1S2(=O)=O`, inactive: -11%.
Under `Cc1cc(C)cc(NC(=O)[C@H]2O[C@@H]3OC(C)(C)O[C@@H]3[C@H]3OC(C)(C)O[C@H]32)c1` stands inactive: 5.24%; under `Cc1ccccc1C(=O)N1CCC(c2nc(-c3ccc(S(=O)(=O)N4CCCC4)cc3)no2)CC1`, inactive: -13.5%; under `Clc1cccc(Nc2ncnc3c2nc2n3CCCCC2)c1`, inactive: 6.12%.
Regarding `Cc1ccsc1CN(Cc1ccco1)c1cnc(S(C)(=O)=O)nc1C(=O)Nc1ccc(Cl)cc1`, the “activity change, negative = inhibition” value was inactive: -25.9%.
Regarding `Cn1c(=O)oc2cc(S(=O)(=O)CCC(=O)NCc3ccc(Cl)cc3)ccc21`, the “activity change, negative = inhibition” value is inactive: -9.85%.
Take `CC1CCN(C(=O)CN2CC(C)Sc3ccccc32)CC1` (stereo unspecified): the “activity change, negative = inhibition” value was inactive: -11.6%.
Turning to `CCOCCn1ccc2c(OCC(=O)Nc3cc(C)cc(C)c3)cccc2c1=O`, the “activity change, negative = inhibition” value was inactive: -13.3%.
With `COc1ccc(-c2cn3nc(SCC(=O)Nc4cccc(C)c4C)ccc3n2)cc1`, the “activity change, negative = inhibition” value was inactive: -19.9%.
As to `Cc1cccc(C(=O)Nc2ccc(OCc3cc(=O)n4ccc(C)cc4n3)cc2)c1`, the “activity change, negative = inhibition” value was inactive: -10.4%.
On to `COc1ccc(Nc2nc3ccccc3n3c(N)nnc23)cc1`, for which the “activity change, negative = inhibition” value was inactive: 28.9%.
As for `CCCCN(C)C(=O)CCC(=O)NNc1nc2ccccc2c2nc(C)nn12`, the figure is inactive: -7.04%; as for `COc1cc2c(cc1OC)C(COc1cc(C)cc(C)c1)N(C(=O)C(C)(C)C)CC2` (stereo unspecified), inactive: -17.2%; as for `CCC(Nc1ccc(-c2nc(-c3ccccn3)no2)cc1[N+](=O)[O-])c1ccccc1` (stereo unspecified), inactive: 38%.
For the compound `COc1cc2c(C(=O)N(C)c3cccc(C(F)(F)F)c3)cn(CC(C)C)c(=O)c2cc1OC`, the “activity change, negative = inhibition” value is inactive: -10%.
Take `Cc1cccc(N2CCn3c2nc2c3c(=O)n(CCCc3ccccc3)c(=O)n2C)c1`: the “activity change, negative = inhibition” value was inactive: -4.16%.
As for `Cc1ccc(C(c2sc3nc(-c4ccco4)nn3c2O)N2CCN(c3ccc(F)cc3)CC2)cc1` (stereo unspecified), the figure is inactive: 16%; as for `O=C(CCCCCn1c(=O)c2sccc2n(CC(=O)Nc2ccccc2F)c1=O)NCc1ccc2c(c1)OCO2`, inactive: -9.48%; as for `CCC(C)OC(=O)/C(C#N)=C/c1ccc(-c2ccc(Br)cc2)o1` (stereo unspecified), inactive: 1.25%.
Turning to `COc1cc(CN(C(=O)COc2ccccc2)c2ccccn2)cc(OC)c1OC`, the “activity change, negative = inhibition” value was inactive: -18.1%.
As for `Cc1ccc(C2CC(=O)Nc3c2c(C)nn3-c2nc(C)cc(C)n2)c(C)c1` (stereo unspecified), the “activity change, negative = inhibition” value was inactive: 4.01%.
For `Cc1cc2n(n1)CCCN2C(=O)Nc1ccccc1C(F)(F)F`, the “activity change, negative = inhibition” value is inactive: 4.63%.
With `CCC1=C(C)CN(C(=O)NCCc2ccc(S(=O)(=O)NC(=O)NC3CCC(C)CC3)cc2)C1=O` (stereo unspecified), the activity change, negative = inhibition entry is “inactive”.
Turning to `O=C(Nc1ccccc1C(=O)N1CCCCC1)c1nsc2ccccc12`, the “activity change, negative = inhibition” value was inactive: -3.8%.
As for `CCCCOc1cccc(C2c3c(-c4cc(C)ccc4O)n[nH]c3C(=O)N2CCOC)c1` (stereo unspecified), the “activity change, negative = inhibition” value is inactive: -27.8%.
Under `CCCCCOc1ccc(/C=C/C(=O)Nc2sc3c(c2C(=O)OCC)CCC3)cc1OC` stands inactive: 1.1%; under `COc1ccc(NC(=O)CNC(=O)Cn2ccc3ccccc3c2=O)cc1OC`, inactive: -8.72%.
As for `Cc1cccc(N2CCN(CCCNc3ncnc4onc(-c5ccc(F)cc5)c34)CC2C)c1` (stereo unspecified), the figure is inactive: -25.3%; as for `CN1CCN(c2cc3c(nn2)Oc2ccccc2N3C)CC1`, inactive: 6.65% [at 25.2 µM].
With `CCCCc1ccc(NS(=O)(=O)c2ccc(C)c(C(=O)N3CCN(c4cccc(C)c4C)CC3)c2)cc1`, the “activity change, negative = inhibition” value is inactive: -6.33%.
Under `O=C(CCNS(=O)(=O)c1ccc2c(c1)CCN2C(=O)C1CC1)Nc1ccc(OC(F)(F)F)cc1` stands inactive: -40.3%.
For the compound `CCc1ccc2oc(-c3cc(NC(=O)c4cccs4)ccc3Cl)nc2c1`, the “activity change, negative = inhibition” value is inactive: -9.77%.
Take `CCC(C)NC(=O)Cn1ccc2cc(S(=O)(=O)N3CCCCCC3)ccc21` (stereo unspecified): the “activity change, negative = inhibition” value was inactive: -29.7%.
As for `COc1cccc2cc(C(=O)Nc3ccc(C)cc3)c(=O)oc12`, the figure is inactive: 77.8%.
Turning to `Cc1ccc(CCNC(=O)c2ccc3c(c2)N(Cc2cccc(F)c2)C(=O)c2ccccc2S3)cc1`, the “activity change, negative = inhibition” value was inactive: -7.07%.
Take `Cc1ccc2c(=O)cc(C(=O)Nc3sc4c(c3C(=O)NCc3cccnc3)CCCC4)oc2c1`: the activity change, negative = inhibition was inactive: -8.16% [at 11.5 µM].
`CCOC(=O)c1ccc(NC(=O)C2=C(C)C(=O)OC23CCN(C(C)C)CC3)cc1`: the “activity change, negative = inhibition” value is inactive: -31%.
`Cc1ccc(CN(C(=O)COc2ccc(F)cc2)C2CCS(=O)(=O)C2)o1` (stereo unspecified): the “activity change, negative = inhibition” value is inactive: -13.2%.
